Results as given in ChEMBL document CHEMBL5606460, “ASAP - DENV-2 NS2B-NS3 protease fluorescence single point” (2024).
Out of some 2,000 compounds screened, about 110 (5.5%) showed an effect of 50% or more. This is one part of the list.

Target: Genome polyprotein (dengue virus type 2) (UniProt P29990)
[1] = Thailand/16681/1984, Concentration 25.0 uM, Number of replicates 1.0

O=Cc1ccc(N2CCC(C(=O)NCCc3ccc(O)c(O)c3)CC2)cc1 gave an inhibition [1] of 41.1%.
Molecule CC1CCN(CCCCNC(=O)C2CCN(c3ccc(C=O)cc3)CC2)CC1 has an inhibition [1] of 13.7%.
O=Cc1ccc(N2CCC(C(=O)N3CCN(c4ccc(Br)cn4)CC3)CC2)cc1 gave an inhibition [1] of -2%.
CCOc1ccccc1-c1cccc2c(N)ccnc12 gave an inhibition (Thailand/16681/1984, Concentration 49.95 uM, Number of replicates 2.0, Standard deviation 5.626680540926734 %) of -3.85% and an inhibition (Thailand/16681/1984, Concentration 99.9 uM, Number of replicates 2.0, Standard deviation 6.306982453295959 %) of -3.22%.
With CCN(Cc1cc(Br)ccc1F)C(=O)C1CCN(c2ccc(C=O)cc2)CC1 the inhibition [1] was 15.9%.
For O=Cc1ccc(N2CCC(C(=O)NC3CCN(CC(=O)NC4CC4)CC3)CC2)cc1, the inhibition [1] was 15.3%.
O=S(=O)(Nc1ccc(Oc2ccccc2Cl)cc1)c1c[nH]c2ccc(Cl)cc12 gave an inhibition (Thailand/16681/1984, Concentration 49.5 uM, Number of replicates 2.0, Standard deviation 1.0638417530802116 %) of 4.45%, an inhibition (Thailand/16681/1984, Concentration 99.01 uM, Number of replicates 2.0, Standard deviation 0.5497119042335245 %) of 7.95% and an inhibition (Thailand/16681/1984, Concentration 198.0 uM, Number of replicates 2.0, Standard deviation 4.968033131413375 %) of 46.3%.
Work on Cc1cc(Br)cc(NC(=O)C2CCN(c3ccc(C=O)cc3)CC2)c1 yielded an inhibition [1] of 13.7%.
In the case of N#Cc1cccc(-c2nc3c(C(=O)NCc4ccccn4)cc(Cl)cc3[nH]2)c1, the inhibition (Thailand/16681/1984, Concentration 99.5 uM, Number of replicates 2.0, Standard deviation 0.024300186977441064 %) is reported as -1.93% and the inhibition (Thailand/16681/1984, Concentration 295.6 uM, Number of replicates 2.0, Standard deviation 0.2349015826654049 %) is reported as 5.47%.
Work on O=Cc1ccc(N2CCC(C(=O)Nc3c(Br)cncc3[N+](=O)[O-])CC2)cc1 yielded an inhibition [1] of 13.2%.
CNC(=O)c1cc(C#N)ccc1NS(=O)(=O)c1ccc(Oc2ccccc2Cl)cc1 showed an inhibition (Thailand/16681/1984, Concentration 49.5 uM, Number of replicates 2.0, Standard deviation 0.4271842721165937 %) of 49.4%, an inhibition (Thailand/16681/1984, Concentration 99.01 uM, Number of replicates 2.0, Standard deviation 0.14972718509713318 %) of 88.8% and an inhibition (Thailand/16681/1984, Concentration 198.0 uM, Number of replicates 2.0, Standard deviation 0.1152868035427591 %) of 94%.
CN(Cc1nc2ccccc2n1C)C(=O)C1CCN(c2ccc(C=O)cc2)CC1 was tested, and the inhibition [1] was 14.9%.
O=Cc1ccc(N2CCC(C(=O)NCCOc3ccccc3Cl)CC2)cc1 was tested, and the inhibition [1] was 12.6%.
For O=C1c2c(O)ccc([N+](=O)[O-])c2C(=O)c2c([N+](=O)[O-])ccc(O)c21, the inhibition (Thailand/16681/1984, Concentration 50.0 uM, Number of replicates 2.0, Standard deviation 4.5365390911554515 %) was 5.08% and the inhibition (Thailand/16681/1984, Concentration 100.0 uM, Number of replicates 2.0, Standard deviation 14.84324878588446 %) was 27.8%.
Molecule CN(C(=O)C1CCN(c2ccc(C=O)cc2)CC1)[C@H]1CS(=O)(=O)C[C@@H]1O has an inhibition [1] of 12.1%.
CCCCCC(=O)N[C@H](C(=O)NCc1ccc(N)nc1)c1ccc(OCc2ccccc2)cc1 showed an inhibition (Thailand/16681/1984, Concentration 49.5 uM, Number of replicates 2.0, Standard deviation 0.5514996049599625 %) of -5.35%, an inhibition (Thailand/16681/1984, Concentration 99.01 uM, Number of replicates 2.0, Standard deviation 6.42872691267386 %) of 2.25% and an inhibition (Thailand/16681/1984, Concentration 198.0 uM, Number of replicates 2.0, Standard deviation 0.7744386054656718 %) of -1.4%.
In the case of O=Cc1ccc(N2CCC(C(=O)Nc3ccccc3Oc3ccccc3)CC2)cc1, the inhibition [1] is reported as 14.2%.
Work on O=Cc1ccc(N2CCC(C(=O)Nc3ccccc3Sc3ccccc3)CC2)cc1 yielded an inhibition [1] of 12.1%.
CC(C)CCN(CCC(C)C)C(=O)C1CCN(c2ccc(C=O)cc2)CC1 gave an inhibition [1] of 14.1%.
CNC(=O)c1cc(Cl)ccc1NS(=O)(=O)c1cccc(CN(C)C)c1 gave an inhibition (Thailand/16681/1984, Concentration 49.5 uM, Number of replicates 2.0, Standard deviation 0.23875835647893978 %) of -0.451%, an inhibition (Thailand/16681/1984, Concentration 99.01 uM, Number of replicates 2.0, Standard deviation 0.04440904899457988 %) of 0.244% and an inhibition (Thailand/16681/1984, Concentration 198.0 uM, Number of replicates 2.0, Standard deviation 0.006207725023472561 %) of 1.15%.
In the case of CC(C)Nc1nc2ccc(C(=O)Nc3cc(-c4nccn4C)n[nH]3)cc2[nH]1, the inhibition (Thailand/16681/1984, Concentration 49.5 uM, Number of replicates 2.0, Standard deviation 0.1078455245570697 %) is reported as -3.38%, the inhibition (Thailand/16681/1984, Concentration 99.01 uM, Number of replicates 2.0, Standard deviation 0.6053443955687522 %) is reported as -5.01% and the inhibition (Thailand/16681/1984, Concentration 198.0 uM, Number of replicates 2.0, Standard deviation 0.5728282705299915 %) is reported as -7.32%.
O=c1c2ccccc2ncn1C1CN(Cc2c[nH]c3ccccc23)C1 was tested, and the inhibition (Thailand/16681/1984, Concentration 49.5 uM, Number of replicates 2.0, Standard deviation 0.9406116594391499 %) was -0.283%, the inhibition (Thailand/16681/1984, Concentration 99.01 uM, Number of replicates 2.0, Standard deviation 0.7556417116224043 %) was -0.297% and the inhibition (Thailand/16681/1984, Concentration 198.0 uM, Number of replicates 2.0, Standard deviation 0.5108694529395815 %) was 1.4%.
COC(=O)[C@@H](C)NC(=O)Cc1cc(OC)nc(N2CCNCC2)n1 showed an inhibition (Thailand/16681/1984, Concentration 49.5 uM, Number of replicates 2.0, Standard deviation 1.2325155060163866 %) of -0.382%, an inhibition (Thailand/16681/1984, Concentration 99.01 uM, Number of replicates 2.0, Standard deviation 1.7034196734708464 %) of -0.714% and an inhibition (Thailand/16681/1984, Concentration 198.0 uM, Number of replicates 2.0, Standard deviation 0.018555769747303108 %) of -0.002%.
COC(=O)c1ccc(F)c(Cn2ncc(C3CCNCC3)c2C)c1 was tested, and the inhibition (Thailand/16681/1984, Concentration 49.5 uM, Number of replicates 2.0, Standard deviation 1.7959816127929562 %) was -0.703%, the inhibition (Thailand/16681/1984, Concentration 99.01 uM, Number of replicates 2.0, Standard deviation 0.6985577144345978 %) was -0.026% and the inhibition (Thailand/16681/1984, Concentration 198.0 uM, Number of replicates 2.0, Standard deviation 2.047440627042714 %) was 1.74%.
For O=Cc1ccc(N2CCC(C(=O)NC3C4CC5CC(C4)CC3C5)CC2)cc1 (centres undefined), the inhibition [1] was 6.37%.
